Data reported in the supplement of paper PMC11417369.
The other results are listed elsewhere or left out.

Test system: PfAP2-HC AP2 domain (GST-tagged)
Experiment: gcPBM binding intensity (ln(normalized median fluorescence intensity)); higher = stronger DNA binding
Summary of the method: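 Binding intensity is the highest Masliner-normalised natural-log median intensity over replicate spots in either probe orientation. To obtain it, GST-tagged P. falciparum DNA-binding domains made in E. coli were incubated for 1 h on an Agilent 4 × 180k array of primer-extended double-stranded 36-bp intergenic genomic probes plus negative controls. Detection used Alexa488 anti-GST antibody with scanning at 488 nm.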

Sequence	gcPBM binding intensity (ln)
TATAATGATAATAATAGTACACATTAGAACGGGAGG [XGTACX_site2563]	9.96
TATAATAATAAAAACACACACGTTGATTGTATTAGC [CACACA_site5336]	10.1
ATAATATTATTTAAAAGTACTAACAAAAGAATATTA [XGTACX_site4989]	9.62
CCTATTATTTCTAAAACACACAAAAATATAAAAGAA [CACACA_site2708]	9.79
TCTTTTTTTTATTATATCATTGAAATGTTAAAACGA [XGTACX_negctrl_site473]	9.32
AACGTGTGGAGAATTATAAATGAGTAAAAAATATAT [XGTACX_negctrl_site562]	9.85
AAAATAAAAGAATAAAAATATGAAACTTTTTTAAAA [GTGCAC_negctrl_site348]	9.46
GGGGGGAGGGTGAATACACACGTAATAATCATAAAC [CACACA_site8502]	10.5
ATTAAATAAAAAAACACACACATATATACCTATATA [CACACA_site5837]	11
CAAAACATTTTATCTACACACATATATAAATAAATA [CACACA_site3220]	9.77
AATAAAACATAATAATGTACTCAAAGGTTTAACTTG [XGTACX_site4711]	9.81
AAAAATGAAAGTAAGACATGCATGGAATTTTTTTTA [TGCATGCA_site347]	9.79
TTTTTTTTTTATGAAAGTACATATGAAAAATACGAA [XGTACX_site3451]	9.35
ATATATGTGTATGTATGTACTTATATTTTTTTTTAT [XGTACX_site1733]	9.78
GCAAATCAATTTTTTTTTAAAACTCATTTTTTCGTT [CACACA_negctrl_site1136]	9.75
TCCGTTATATATGTGTGTACATATAATATATCCTCA [XGTACX_site2588]	9.86
TTCATACATATTTGAAGTACATTTAAAAATGTCCTT [XGTACX_site747]	9.51
TCCAATATATTTATGAGTACTTATAAATTATACGTT [XGTACX_site742]	9.7
GAAGTAATTTCATATACACACATATACATACATACA [CACACA_site6753]	9.83
ATATATATATATGTATGTACGTATGTATTTACTGCT [XGTACX_site3839]	10.1
TATTTATAATTATAATAATATATATATATATATATA [TGCATGCA_negctrl_site173]	9.41
ATTGTGTTAATAAAATGTACATTTTCTCTACATTAA [XGTACX_site2766]	9.72

Sequence	gcPBM binding intensity (ln)
TTTGAATAAAAACAAAAAATTAAATTAAATTAAATA [CACACA_negctrl_site312]	9.33
AATAGTCGGGTGCATACACACCTTAAATATAATATA [CACACA_site8271]	9.57
TTATAAAATATTTATGCATGTGAAGAATATTATAAA [TGCATGCA_site1047]	9.52
GAAAAAAGTATCAAGGTGCGTATATACATCAAAATA	9.76
TTCTTACATGAGTGTACACACTTTTTTTCAGAAAAT [CACACA_site4215]	9.81
GGTGGGGAGGAGTAATGTACAAATTAACATATTATG [XGTACX_site6666]	9.9
AAATGTTGAGCAGTACAAAAAAAAAAAAAAAAAAAA [GTGCAC_negctrl_site518]	8.66
CAAAACAAAACGTATGCACACAATTAAAATATTAAA [CACACA_site5815]	9.9
TTTTTTTTTTAATTGGGTACATATATAATTTAAGAA [XGTACX_site2732]	8.99
CATTTATATAAAAGAACACACATATAAAATATTATT [CACACA_site3601]	9.77
AAGATACCAATGAAATGTACATATATATAAATATAA [XGTACX_site2135]	9.72
TATATATTATAAAATTGTACATATATTAAATTTTTT [XGTACX_site5852]	9.32
TAACTAATATATAAAACACACATCATAAAAATATAA [CACACA_site768]	9.9
TTTTGTTGAAAAGTAAGATATTCCAACATGTTTTTA [CACACA_negctrl_site391]	9.43
AGCAAAACATAAAATAGTACACATTTAACAAAAAAA [XGTACX_site2921]	9.75
TTTTATCATCTTTTTACATTATGTATAAATATTTTC [CACACA_negctrl_site206]	9.84
AAAAGAACAATGAAGTGTACTAATAATTATTTATGT [XGTACX_site6649]	9.73
ATATAATATATTTTTGAACACACAATATATATATAT [CACACA_site9368]	9.72
ACACATAAATGAATAAATAAATAAATATAAATATAA [CACACA_negctrl_site1784]	10.1
ATATCATTTTCCTGCACACATAAATTTATATAATAT [CACACA_site1048]	9.97
AATTCGTACCTCATTTGTACATATATATATATATAT [XGTACX_site5513]	10
TTTTTTATAGTACATTACCAAAAAAAAAAAAAAAAA [GTGCAC_negctrl_site549]	8.85

Sequence	gcPBM binding intensity (ln)
CATACACCCATACATACACACATACAGATATATATA [CACACA_site5123]	10.1
ATATATTGCACTTTTTGTACATAATGAAAAATTTTT [XGTACX_site8223]	9.62
TACATATTGATATATACACACAAAAAAATAAATTCT [CACACA_site6198]	9.86
ACCTTAATAAAAAAAAGTACAAACATGTTCAAATTG [XGTACX_site1556]	9.62
ATCTCTGTATGTTAGACACACATATTTTAATATGTT [CACACA_site4244]	9.88
TAAAATTTGTACATAGTGCAATTTTTTTTTTTTTTT	9.41
TCACCATATAAACGTGCACACTACAAAAATATATAA [CACACA_site5413]	9.67
TATTTATTTAAAAATTGTACGTAGGATTATACACTT [XGTACX_site286]	9.49
CTTTTATTTTATTTTAGTACGCAACATTCTCTATAT [XGTACX_site7279]	9.76
ATATAAATATTATAATGTACATATAATATATTTATT [XGTACX_site5212]	9.57
TTTTTTTTTTTTTTCTTACAATTTATTGAACAAATG [XGTACX_negctrl_site515]	9.22
AGTGATTATTAATAATGTACATATCTATAAATATAT [XGTACX_site4734]	9.64
TAGTTTTTTATATATTGTACAAATAATATATGATAT [XGTACX_site4220]	9.53
AATAAATAAATATATATATATATATATATATATATA [CACACA_negctrl_site365]	9.72
ACAATTTACACTTAAACACACAAAAAAAAGTTATAT [CACACA_site7056]	9.98
TATCAAAATTGTAATTGTACTTGTAAGTGGATATAT [XGTACX_site5949]	9.56
TATATATTTCATCCTTGTACACATTTGTGTTTACAT [XGTACX_site1132]	10.2
GTATTGCATGAGGACACACACAAAAAAAATATAGAT [CACACA_site6500]	10.1
TTTTTTTTTACTTGTTGTACTTTTTCAAGGTATTGT [XGTACX_site7778]	9.72
ATATAAAAAAATTGCACACATAAATAAATACAGATA [CACACA_site4806]	9.9
TAAAAATTGAAGCACACACACAAAAGAAATACAATA [CACACA_site1113]	10.9
ATATTTACAAGTAATAGTACAGTTAATTATATAAAA [XGTACX_site4856]	9.62

Sequence	gcPBM binding intensity (ln)
ATTATATAGCTAAAAAAAATAAATTAAAAATATTAA [TGCATGCA_negctrl_site505]	9.29
AAGAATGTTATTAGTACACACAATTATTATAGAAAT [CACACA_site7714]	9.87
AATGTACAAATACGTACACACATATTTATATTTATA [CACACA_site6833]	9.85
CTACCTTTAATATATACACACACATAAAAAAAATAT [CACACA_site8548]	10.5
ATATATATATATAATAAACACACAAATAGATATAAC [CACACA_site9234]	10.1
TATATATATATATATACATGCATACATATACATACA [TGCATGCA_site897]	9.52
AGATAAGATATATACACACACATAAATACGTACAAA [CACACA_site6639]	10.3
AATGTACCCACACCCACACACAAACAAATATATATA [CACACA_site2751]	10.2
ATAGGATGCATATGAGTGCATTCTGTGTTGTTATAA	9.57
AGATTAAAATATATACGTACATATTATTAATTAATA [XGTACX_site3487]	9.59
TACTTGTTATTAACATGTACAAAAAAAAAAAAAATT [XGTACX_site1338]	9.4
AAACAATATTCTCAAGTGCAAAAAGAAAAAAGAAAT	9.93
TTTATTTTTATTTAAAGTACATATCCATTTATTCCT [XGTACX_site1914]	9.53
ATTTTCTTATATATATTTTGTATATATTTTGTACAT [CACACA_negctrl_site1496]	10.2
ACCCATATAATATATACACACATATATATATATATA [CACACA_site4731]	10
TAATGTATTATATTTTGTTTTCTTCCACCAAAAAAA [XGTACX_negctrl_site64]	9.33
AAAAAAAAAATTAAATGTACACACACCTTAAACAAT [XGTACX_site3848]	10.7
CAATTAAAGATATGAACACACATGTGAACTTTCTAT [CACACA_site7796]	9.78
AATTTAATTTTTTCGTGTACTTATATAGGAGGTTTT [XGTACX_site8310]	9.6
TTTCTTATCAACCTTTTTTTTTTTTTTTTATTCTTA [TGCATGCA_negctrl_site162]	9.49
CCCATATTATAGGTGTGTACATAAAAGTATATATAA [XGTACX_site3629]	9.75
AGAAGAAATATGTAAAAAATTTTATATTCACACACA [GTGCAC_negctrl_site441]	10.1
